# Results as given in the BET-seq Pho4 binding data (Le et al. 2018).
# Some of the results follow. Values were computed here from the reads of four pooled replicates and scatter widely.
# Target: T1, Pho4 (S. cerevisiae) (UniProt P07270)
# T1 sequence: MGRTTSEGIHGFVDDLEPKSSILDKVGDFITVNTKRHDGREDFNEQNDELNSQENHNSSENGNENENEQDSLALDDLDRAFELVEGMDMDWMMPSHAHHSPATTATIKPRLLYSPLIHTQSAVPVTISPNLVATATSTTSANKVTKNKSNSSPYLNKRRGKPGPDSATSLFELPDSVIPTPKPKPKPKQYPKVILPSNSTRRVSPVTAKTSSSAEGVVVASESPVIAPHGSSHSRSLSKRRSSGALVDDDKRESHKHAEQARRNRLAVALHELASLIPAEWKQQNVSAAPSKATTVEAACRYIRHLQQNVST
# Assay: relative binding free energy (BET-seq); higher = weaker binding
# Details: reference: library average
row,Sequence,relative binding free energy
1,GGTGTCACGTGGCGGC,0.2 kcal/mol
2,ACAGGCACGTGTGTAT,0.05 kcal/mol
3,TTGGTCACGTGCGGAA,-0.03 kcal/mol
4,TTTGGCACGTGTACGA,0 kcal/mol
5,GAAGTCACGTGAGTGG,0.24 kcal/mol
6,AAGGGCACGTGTGTGC,-0.11 kcal/mol
7,CGGGGCACGTGGGCTG,-0.31 kcal/mol
8,CGAGGCACGTGGTATA,-0.2 kcal/mol
9,TCTAGCACGTGGTCGG,-0.19 kcal/mol
10,TCGAGCACGTGGAGGG,-0.06 kcal/mol
11,TGAAGCACGTGGTCGT,0.01 kcal/mol
12,ATCGGCACGTGTATGG,-0.14 kcal/mol
13,GCGGGCACGTGAAGTA,0.24 kcal/mol
14,CGTGTCACGTGAGAAG,0.23 kcal/mol
15,AGTGGCACGTGAGAGG,0.13 kcal/mol
16,CTGATCACGTGTCGGG,0.03 kcal/mol
17,TGGGGCACGTGTTGTC,-0.03 kcal/mol
18,CGCTTCACGTGGGGGA,0.13 kcal/mol
19,AAGTTCACGTGGTGGG,0.29 kcal/mol
20,AGAATCACGTGTTTAT,0.07 kcal/mol
21,CTATACACGTGGGTGG,-0.13 kcal/mol
22,GAAGTCACGTGGCAGT,0.19 kcal/mol
23,TTTTGCACGTGAATTG,0.23 kcal/mol
24,CTTTTCACGTGGAGGC,0.31 kcal/mol
25,TTGATCACGTGGGTGG,0.01 kcal/mol
26,GTTTGCACGTGCCTGT,0.09 kcal/mol

row,Sequence,relative binding free energy
1,GGGGGCACGTGAGACG,0.1 kcal/mol
2,AAGTTCACGTGTTCAG,0.33 kcal/mol
3,TTTGACACGTGTGTAT,0.04 kcal/mol
4,ATCGTCACGTGGTATT,-0.08 kcal/mol
5,ATTTACACGTGTGATT,0.1 kcal/mol
6,TTGGACACGTGTGGTG,0.08 kcal/mol
7,CATATCACGTGTAGTT,0.09 kcal/mol
8,AGATGCACGTGGAAAT,0.01 kcal/mol
9,TTATTCACGTGAGTAA,0.39 kcal/mol
10,TGGTGCACGTGTAAGC,0.06 kcal/mol
11,AGGACCACGTGCGTGG,-0.13 kcal/mol
12,TATTACACGTGATGCG,0.01 kcal/mol
13,ATTTGCACGTGGCGGT,-0.09 kcal/mol
14,AACGGCACGTGGTGAG,-0.09 kcal/mol
15,AGTGACACGTGTGACG,0.16 kcal/mol
16,CTGGACACGTGTTGGG,0.03 kcal/mol
17,CGTTTCACGTGTTTGA,0.22 kcal/mol
18,GGTGCCACGTGTGATT,0.07 kcal/mol
19,GCGGGCACGTGGACGT,-0.05 kcal/mol
20,GGAACCACGTGAGTGG,0.19 kcal/mol
21,AAGAGCACGTGGTTTT,-0.12 kcal/mol
22,ATGGACACGTGTTGGC,0.11 kcal/mol
23,GGAGGCACGTGTGAGT,-0.07 kcal/mol
24,TGTGTCACGTGATTCT,0.28 kcal/mol
25,TTAATCACGTGGGTCA,0 kcal/mol
26,AATCGCACGTGGGTGT,-0.28 kcal/mol

row,Sequence,relative binding free energy
1,TGCGGCACGTGGACTG,-0.07 kcal/mol
2,GACTGCACGTGAGCGG,0.29 kcal/mol
3,CTGGGCACGTGGTATT,-0.12 kcal/mol
4,TGTGGCACGTGTTAAA,0.04 kcal/mol
5,AGTTACACGTGGTTTT,0.09 kcal/mol
6,GTTTGCACGTGTCTAA,0.25 kcal/mol
7,TTACGCACGTGTGCGT,-0.23 kcal/mol
8,TGAATCACGTGTATTA,0.18 kcal/mol
9,TGGATCACGTGGTGTC,0.09 kcal/mol
10,GTGGGCACGTGGAATT,0.13 kcal/mol
11,AGGTTCACGTGTCAGT,0.23 kcal/mol
12,GGACGCACGTGTGAGG,-0.1 kcal/mol
13,GGGTTCACGTGCGTAT,0.3 kcal/mol
14,AGTGGCACGTGGACTT,-0.21 kcal/mol
15,CTATTCACGTGCGTTT,0.18 kcal/mol
16,TTGAACACGTGCGAGT,0.07 kcal/mol
17,AGCGGCACGTGGAAAT,0.12 kcal/mol
18,CATGGCACGTGGGTGG,-0.21 kcal/mol
19,GATGGCACGTGTGCAG,-0.15 kcal/mol
20,ATTGTCACGTGGCGAT,-0.04 kcal/mol
21,GGCTGCACGTGGAGGT,-0.04 kcal/mol
22,AGGGACACGTGCGGTG,-0.07 kcal/mol
23,ATGCGCACGTGTGATG,-0.02 kcal/mol
24,ATGTACACGTGTGTGT,0.09 kcal/mol
25,GTAACCACGTGGGAGT,-0.04 kcal/mol
26,ATTTACACGTGAGAGA,0.33 kcal/mol

row,Sequence,relative binding free energy
1,GGCTTCACGTGTTTGG,0.29 kcal/mol
2,TTTTACACGTGCGTCT,0.13 kcal/mol
3,CCTGGCACGTGGGGGA,-0.23 kcal/mol
4,ATGGACACGTGATGTA,0.08 kcal/mol
5,GTCGACACGTGGCGGG,0.08 kcal/mol
6,GGGTGCACGTGAGATC,0.32 kcal/mol
7,TTGGTCACGTGACGGA,0.31 kcal/mol
8,TGGGGCACGTGTAGAC,-0.03 kcal/mol
9,CCTTGCACGTGGGGGT,-0.18 kcal/mol
10,TTGGACACGTGGTCAG,0 kcal/mol
11,TATGGCACGTGCGTTT,-0.09 kcal/mol
12,GTGGACACGTGTTGCA,0.07 kcal/mol
13,ACGTTCACGTGTTGGG,0.14 kcal/mol
14,GGCTCCACGTGGTTGG,-0.01 kcal/mol
15,TGTAGCACGTGGGGGG,-0.18 kcal/mol
16,AGTACCACGTGGATGG,0.03 kcal/mol
17,GTATGCACGTGGGATG,-0.01 kcal/mol
18,CTGATCACGTGTTTTG,0.23 kcal/mol
19,TGGTGCACGTGGTAAG,-0.09 kcal/mol
20,GGGGTCACGTGCTAAT,0.12 kcal/mol
21,AATCGCACGTGATGTG,0.09 kcal/mol
22,TTTTACACGTGGATCT,0.13 kcal/mol
23,AATTTCACGTGAGCGT,0.29 kcal/mol
24,AAGGTCACGTGGTTGA,0.02 kcal/mol
25,TATGGCACGTGGTATG,-0.17 kcal/mol
26,TTTAGCACGTGCTATT,-0.1 kcal/mol

row,Sequence,relative binding free energy
1,CCATGCACGTGGTGGT,-0.27 kcal/mol
2,ATTTTCACGTGTCGTG,0.2 kcal/mol
3,TGTTACACGTGAACGG,0.31 kcal/mol
4,GCTTGCACGTGTGGTC,0.17 kcal/mol
5,GGCTACACGTGGGGGG,-0.05 kcal/mol
6,AGCTGCACGTGGGTGT,-0.22 kcal/mol
7,ATTACCACGTGTTTGT,-0.14 kcal/mol
8,GGGTCCACGTGAGCTG,0.29 kcal/mol
9,AATTGCACGTGTCGAG,0.12 kcal/mol
10,GTGTCCACGTGATGTA,0.13 kcal/mol
11,CATAGCACGTGTGAGT,0.06 kcal/mol
12,TTCGACACGTGTTTTG,-0.01 kcal/mol
13,TGTGTCACGTGCGATA,0.12 kcal/mol
14,GGTGGCACGTGAAGTA,0.21 kcal/mol
15,GGTGTCACGTGATTTG,0.27 kcal/mol
16,AGGGTCACGTGACGCG,0.26 kcal/mol
17,CTTGTCACGTGGTCGG,0 kcal/mol
18,GTGTTCACGTGGCTTC,0.25 kcal/mol
19,ATTTGCACGTGGATGT,0.11 kcal/mol
20,TGGTGCACGTGCAGAT,-0.1 kcal/mol
21,AGTGGCACGTGGCATG,-0.3 kcal/mol
22,TGAGACACGTGGCGTT,0.15 kcal/mol
23,GAGTTCACGTGTACGT,0.42 kcal/mol
24,CTGATCACGTGGTGAT,0.05 kcal/mol
25,TTGGTCACGTGTCTTT,0.08 kcal/mol
26,TCGGTCACGTGTGTGG,0.07 kcal/mol

row,Sequence,relative binding free energy
1,ATGGTCACGTGAGACG,0.16 kcal/mol
2,TTGTTCACGTGATTAT,0.27 kcal/mol
3,AGCTACACGTGTGGGA,0.25 kcal/mol
4,TACTTCACGTGTGGTG,0.17 kcal/mol
5,TGGTTCACGTGAGTTC,0.39 kcal/mol
6,TTGGTCACGTGATTTT,0.26 kcal/mol
7,AGTGACACGTGGCTTG,-0.02 kcal/mol
8,GGGTACACGTGGGCTG,-0.1 kcal/mol
9,GCGGGCACGTGGGCAG,-0.22 kcal/mol
10,TTTGTCACGTGCTAGT,-0.01 kcal/mol
11,CTCTTCACGTGGTTTA,0.21 kcal/mol
12,GAGGGCACGTGCTGGG,-0.13 kcal/mol
13,TGTGTCACGTGGCTCA,0.02 kcal/mol
14,AAAGGCACGTGATGAT,0.06 kcal/mol
15,CCGGGCACGTGGGTAT,-0.3 kcal/mol
16,GTTCACACGTGGCTGT,0.09 kcal/mol
17,GTGTCCACGTGTTTTG,-0.02 kcal/mol
18,GCTTGCACGTGGTGCG,0.02 kcal/mol
19,TATAGCACGTGCTGTT,-0.18 kcal/mol
20,GAGTTCACGTGGTTAA,0.28 kcal/mol
21,GCTTACACGTGAGTTG,0.32 kcal/mol
22,TAGTGCACGTGAGCGT,0.15 kcal/mol
23,AGGATCACGTGGCGTT,0.11 kcal/mol
24,TACTGCACGTGTGGGC,-0.06 kcal/mol
25,GAGATCACGTGAATTG,0.37 kcal/mol
26,AAAGTCACGTGAGTTG,0.32 kcal/mol

row,Sequence,relative binding free energy
1,AGCTGCACGTGGGGCG,-0.07 kcal/mol
2,GCTGGCACGTGGCGGT,-0.11 kcal/mol
3,TATTGCACGTGATAGA,-0.05 kcal/mol
4,AGGCGCACGTGGGATA,-0.24 kcal/mol
5,AGTGTCACGTGTCTAG,0.1 kcal/mol
6,AGAGTCACGTGAGGAT,0.45 kcal/mol
7,TTCGTCACGTGGGGGC,-0.05 kcal/mol
8,GCTTGCACGTGGCGTT,0.03 kcal/mol
9,AGGCACACGTGGGGTG,-0.21 kcal/mol
10,GGCATCACGTGAAGGG,0.45 kcal/mol
11,TGTGCCACGTGAAGGG,0.18 kcal/mol
12,TTGGGCACGTGAGCTG,0.17 kcal/mol
13,TTTGACACGTGGCCTG,0 kcal/mol
14,GGCGTCACGTGGTTCG,0.03 kcal/mol
15,TTTCGCACGTGAGGGA,0.13 kcal/mol
16,TGTTGCACGTGCTATT,-0.13 kcal/mol
17,ATGGCCACGTGATTGG,-0.01 kcal/mol
18,AAGTCCACGTGGTGTG,-0.26 kcal/mol
19,ATTAGCACGTGAGTTT,0.12 kcal/mol
20,TTTTGCACGTGAAAGA,0.31 kcal/mol
21,CAGTTCACGTGGGGGT,0.1 kcal/mol
22,TCATGCACGTGCGGGC,0.21 kcal/mol
23,GTATGCACGTGGATTG,0.21 kcal/mol
24,GTCTTCACGTGGGTCA,0.2 kcal/mol
25,ATATACACGTGGTTTA,0.02 kcal/mol
26,TTGCACACGTGCGTGG,-0.1 kcal/mol

row,Sequence,relative binding free energy
1,TAGAGCACGTGTTGCG,-0.18 kcal/mol
2,AAGGGCACGTGATGGC,-0.03 kcal/mol
3,TGTTTCACGTGTTAGC,0.19 kcal/mol
4,TTCAGCACGTGGTAGG,-0.03 kcal/mol
5,ACGAGCACGTGGGTAT,-0.23 kcal/mol
6,GGCGCCACGTGAGAGG,0.23 kcal/mol
7,TGGGACACGTGATCAG,0.13 kcal/mol
8,TGCTTCACGTGATGGT,0.24 kcal/mol
9,ATTTTCACGTGTGGGG,0.35 kcal/mol
10,TGTTTCACGTGGAATT,0.24 kcal/mol
11,GCGGGCACGTGGTATT,-0.08 kcal/mol
12,TTTTTCACGTGGGCTG,0.23 kcal/mol
13,TAGTCCACGTGATTGG,0.28 kcal/mol
14,TTATCCACGTGTTTTT,-0.03 kcal/mol
15,CTGGACACGTGGGGGA,-0.19 kcal/mol
16,TTTGGCACGTGTATTT,0.12 kcal/mol
17,ACTTGCACGTGCGGTG,-0.11 kcal/mol
18,GGGCACACGTGAGATG,0.34 kcal/mol
19,CGGGGCACGTGAAGGC,0.09 kcal/mol
20,CGGTACACGTGTGGGC,0.16 kcal/mol
21,ATTGTCACGTGTCGAG,0.03 kcal/mol
22,TTAGACACGTGTGGCA,0.04 kcal/mol
23,GACGACACGTGAGGGG,0.23 kcal/mol
24,TTTGTCACGTGGTGCT,0.06 kcal/mol
25,CGGTTCACGTGGGTGG,0.12 kcal/mol
26,GGAAGCACGTGTTGTG,-0.04 kcal/mol

row,Sequence,relative binding free energy
1,ATAGTCACGTGCGTGG,0.01 kcal/mol
2,GGGGCCACGTGGTGGA,-0.12 kcal/mol
3,GTTTTCACGTGTAACG,0.21 kcal/mol
4,TTTGCCACGTGGGAAG,-0.24 kcal/mol
5,AGGATCACGTGGATCG,0.15 kcal/mol
6,TTTAGCACGTGATGTC,0.11 kcal/mol
7,CTATGCACGTGTGGTG,-0.06 kcal/mol
8,TAGGTCACGTGAGGCG,0.26 kcal/mol
9,TTCGGCACGTGTGTTT,0.1 kcal/mol
10,ATAGGCACGTGAGCGG,0.14 kcal/mol
11,AAGCACACGTGTTTGT,0.16 kcal/mol
12,GGGGGCACGTGCTAGT,-0.12 kcal/mol
13,GTAAGCACGTGAGCGG,0.3 kcal/mol
14,TTTTTCACGTGCGAAT,0.38 kcal/mol
15,TCGTACACGTGGTAGG,0.02 kcal/mol
16,ATTGTCACGTGCGAGT,0.03 kcal/mol
17,GTATTCACGTGCTGGG,0.2 kcal/mol
18,GGTGGCACGTGGGGGC,-0.15 kcal/mol
19,AGGGTCACGTGCTTAA,0.12 kcal/mol
20,AGGGGCACGTGTTCTG,-0.12 kcal/mol
21,TGAGTCACGTGGAAGG,0.22 kcal/mol
22,TTTCGCACGTGTTTAG,0.01 kcal/mol
